Assay results: PMC10668032
The list shows a part of the results. At the low end of the ranking the order means little.

Target: SIX1 homeodomain (reference allele) (UniProt Q15475)
Assay: universal protein binding microarray
Settings: Universal all-10-mer PBM (8x60K, AMADID 030236), 300 nM GST-tagged protein, Alexa Fluor 488 anti-GST; buffer, salt, pH and temperature not stated; high values mean tight binding; most listed sequences are background and not binding sites; double strand, one strand shown

| Sequence | binding signal |
| --- | --- |
| ACAGTCAC | -0.275 E-score |
| CCGCTAGC | -0.00511 E-score |
| ACATTCAA | -0.198 E-score |
| ATCTACAA | 0.0674 E-score |
| ATACCCGA | 0.407 E-score |
| ATTACCGA | 0.0641 E-score |
| CTGGCGAA | -0.154 E-score |
| AACGTTAA | -0.23 E-score |
| CCTATTTC | -0.025 E-score |
| AAAGGTCA | -0.264 E-score |
| ACCTACAG | 0.0234 E-score |
| CCATCTTC | -0.0562 E-score |
| CACCAAAG | 0.15 E-score |
| GATAATTA | 0.116 E-score |
| GATTCTGA | -0.0792 E-score |
| GGTGATAA | 0.154 E-score |
| ATCGGGCC | 0.188 E-score |
| GTTTACTA | -0.0491 E-score |
| AACTCGGG | -0.024 E-score |
| GGGTCACA | 0.057 E-score |
| AGACTCCG | -0.271 E-score |
| GTCACCGA | -0.00109 E-score |
| ACGGGAGG | 0.0184 E-score |
| ACTTCCTC | -0.117 E-score |
| AGATGATG | 0.107 E-score |

| Sequence | binding signal |
| --- | --- |
| CGAGATTA | 0.0713 E-score |
| GTGAATAA | -0.153 E-score |
| CTTGCGAA | -0.112 E-score |
| AATGTACC | 0.0585 E-score |
| CCGGTAGG | -0.023 E-score |
| AACCTCAG | -0.0146 E-score |
| ACTGGTCC | -0.162 E-score |
| ATAAGTTG | -0.0821 E-score |
| TCCCCCGA | 0.0421 E-score |
| CAAGAAGC | -0.126 E-score |
| ATCAATCA | 0.221 E-score |
| ATGCGGCG | -0.119 E-score |
| CCGCGGCC | 0.00162 E-score |
| GACGTTCA | -0.0935 E-score |
| ATTGACTC | 0.0905 E-score |
| ACCAAGCT | -0.11 E-score |
| ACCGTCCC | -0.0758 E-score |
| CTTATTGA | 0.0908 E-score |
| GTAGGCAC | -0.225 E-score |
| CTTTGCTC | -0.267 E-score |
| TCCAGCAA | 0.107 E-score |
| ACACGCCT | -0.0967 E-score |
| AATTAGCA | -0.0445 E-score |
| AGGAACGC | -0.198 E-score |
| CTTGCGCA | -0.0968 E-score |

| Sequence | binding signal |
| --- | --- |
| ACCATAAT | 0.0231 E-score |
| GATGGGAA | -0.113 E-score |
| AGGATCCG | 0.308 E-score |
| ACCGAGCT | 0.0236 E-score |
| AACGTGAT | 0.255 E-score |
| GTGGAGCA | -0.00382 E-score |
| TAGACATA | 0.01 E-score |
| GATTTGCC | -0.104 E-score |
| CTAGTAGA | 0.113 E-score |
| TCATGCCA | 0.0697 E-score |
| CGATTCGC | -0.0191 E-score |
| CAGTCCTC | -0.193 E-score |
| CTTGACTA | -0.12 E-score |
| CCTACAGC | 0.00855 E-score |
| GAGCCGAA | -0.0759 E-score |
| AAGTCAGC | -0.335 E-score |
| ACTGGGCA | -0.183 E-score |
| AAGACTTG | -0.181 E-score |
| ATACTCTC | 0.303 E-score |
| AGTTACAT | -0.166 E-score |
| AAAATAAC | -0.138 E-score |
| CAGAACAC | 0.0161 E-score |
| CGCGTCGA | 0.0963 E-score |
| ATTTACGC | -0.286 E-score |
| ATTTGCAG | 0.0624 E-score |

| Sequence | binding signal |
| --- | --- |
| GAATTTAC | -0.171 E-score |
| ACAGGGAC | -0.141 E-score |
| ATGGGAAA | -0.259 E-score |
| ACTACTCA | -0.0909 E-score |
| ACTTCAAG | -0.047 E-score |
| GTGAATCA | -0.193 E-score |
| AGATCCCA | 0.213 E-score |
| AAAGATTC | -0.0648 E-score |
| GAAACAGA | -0.27 E-score |
| CCCGTAAC | -0.151 E-score |
| CGTTTTTC | -0.158 E-score |
| ACATGAGA | 0.183 E-score |
| ACTGATTC | -0.0918 E-score |
| ACATGAAG | -0.181 E-score |
| AATATGTC | 0.0058 E-score |
| CAAAGACC | -0.182 E-score |
| AAATTGTG | -0.141 E-score |
| GCCGTCAA | -0.242 E-score |
| AAGCTTGG | -0.249 E-score |
| GCATTAGA | -0.0366 E-score |
| CGTCCCAG | -0.0861 E-score |
| CACAGCGC | -0.148 E-score |
| AATCCCTC | 0.203 E-score |
| AGCGTTTA | -0.3 E-score |
| GCCTAGCA | -0.134 E-score |

| Sequence | binding signal |
| --- | --- |
| GACTTCCC | -0.152 E-score |
| AAGTATAT | 0.184 E-score |
| ATATGCAG | 0.222 E-score |
| AGACCCCT | 0.102 E-score |
| CCAGGTTA | -0.0037 E-score |
| ACTTCCGC | -0.164 E-score |
| TCTCCGCA | -0.0758 E-score |
| GGAAGGAC | -0.292 E-score |
| AACGACGC | -0.241 E-score |
| GCAAGCGA | -0.0703 E-score |
| ACGGTTCT | -0.149 E-score |
| ATCATGAC | 0.197 E-score |
| CCAGAGAC | 0.00835 E-score |
| AGGGCTGC | -0.137 E-score |
| CCGCAATC | 0.0789 E-score |
| ACTCTTTC | -0.167 E-score |
| ATATTTTG | 0.0076 E-score |
| ATCATAGG | 0.205 E-score |
| ACAAGTTC | -0.0948 E-score |
| ACCAAGTC | -0.179 E-score |
| ATGCTAAA | -0.0576 E-score |
| TGACTGCA | -0.17 E-score |
| GGAGTAGA | 0.253 E-score |
| GCTAGAGA | 0.0858 E-score |
| AGTCGATA | 0.257 E-score |

| Sequence | binding signal |
| --- | --- |
| TATAAAGA | -0.00647 E-score |
| AGATCTAG | 0.141 E-score |
| ACAATCAC | -0.13 E-score |
| ATAAGCTG | -0.105 E-score |
| ACAAGTAC | -0.0929 E-score |
| TCAGAACA | 0.0594 E-score |
| ACCATCTA | 0.159 E-score |
| GCAGAGTA | 0.0448 E-score |
| CGGTAATA | 0.23 E-score |
| AACAGGCC | -0.319 E-score |
| GATACATA | 0.398 E-score |
| GCCAGGCA | -0.12 E-score |
| CCAACTCA | -0.193 E-score |
| CTCTGTAA | -0.18 E-score |
| AGCGATCG | 0.211 E-score |
| AGGTAAGA | 0.0217 E-score |
| GCCCGCAA | -0.123 E-score |
| CAGCTCGG | -0.0111 E-score |
| AGCCTGGC | -0.189 E-score |
| AAATGAAA | -0.0036 E-score |
| ACCAGCGT | -0.037 E-score |
| AAGCTGTC | -0.213 E-score |
| AATATTAT | 0.11 E-score |
| CCTCTTAC | -0.125 E-score |
| CTGTACGA | -0.0788 E-score |

| Sequence | binding signal |
| --- | --- |
| CTCATCCA | 0.129 E-score |
| ACTAGCTA | -0.0268 E-score |
| GCCCCAGC | -0.0188 E-score |
| CTCGCCGC | -0.0499 E-score |
| AACCTGCG | -0.119 E-score |
| TACAACCA | -0.0112 E-score |
| GCCAAGAA | -0.0857 E-score |
| GCGCTTCC | -0.224 E-score |
| AGACTGCT | -0.265 E-score |
| CATCCGGG | 0.166 E-score |
| CATATCCC | 0.352 E-score |
| GCCGTAAA | -0.133 E-score |
| GGCTGGCA | -0.244 E-score |
| CCGGCGTC | 0.0305 E-score |
| CATTCAGA | -0.0954 E-score |
| ATAACCAT | 0.134 E-score |
| CCAGAACC | -0.0578 E-score |
| ATCTGAAC | 0.179 E-score |
| AACGTAAA | -0.146 E-score |
| GTGTCCCA | 0.204 E-score |
| AACGTAAG | -0.287 E-score |
| GGGCTTGA | -0.183 E-score |
| GGACTTTA | -0.126 E-score |
| ACGTAAAG | -0.112 E-score |
| TCAGAAGA | -0.196 E-score |

| Sequence | binding signal |
| --- | --- |
| ACTGGTTG | -0.0512 E-score |
| GCGAAAAA | -0.102 E-score |
| ACTGCTTG | -0.0467 E-score |
| CGTCGGCA | -0.105 E-score |
| AATGTGCC | -0.179 E-score |
| ATAGGCGG | 0.197 E-score |
| GGTGCTTA | -0.0807 E-score |
| ACAAGTAG | 0.00907 E-score |
| ACGCCGGC | 0.04 E-score |
| CATTTCCG | -0.206 E-score |
| GCCGAGGA | 0.149 E-score |
| ACATATGT | -0.19 E-score |
| TCGTAAAA | -0.00307 E-score |
| AGACGCAG | 0.143 E-score |
| TGACTAAA | -0.33 E-score |
| CTTTCGCC | -0.115 E-score |
| AGCTCAGC | -0.23 E-score |
| GAGGTGAC | 0.0853 E-score |
| CGGGTCGC | 0.036 E-score |
| GGAGTCAC | -0.0259 E-score |
| ATACAATC | 0.197 E-score |
| ATGACGAG | -0.0365 E-score |
| ATTAGTCA | 0.0585 E-score |
| CATTCCGC | -0.222 E-score |
| CCATGTCA | -0.0101 E-score |

| Sequence | binding signal |
| --- | --- |
| GTTACCCA | -0.0711 E-score |
| ACGACGTA | 0.0592 E-score |
| CTTCACTC | -0.0912 E-score |
| CCATTGAG | -0.0934 E-score |
| CGAGCCTC | 0.0722 E-score |
| AATAGGGT | 0.105 E-score |
| ACACATTA | -0.13 E-score |
| CCCGCATC | 0.106 E-score |
| AGTTTGTC | -0.248 E-score |
| TACTCAAA | 0.0473 E-score |
| AAACTACA | 0.0584 E-score |
| CGAGACAA | -0.172 E-score |
| CAAATTGG | -0.0615 E-score |
| AATTGTAT | 0.162 E-score |
| CAGTTGCC | -0.128 E-score |
| GATCCATC | 0.364 E-score |
| GCCACAAC | -0.208 E-score |
| CAAGAATC | 0.0443 E-score |
| ATGTTGGG | -0.122 E-score |
